In all, about 310,000 compounds went through this assay and about 2,200 (0.71%) showed an effect of 50% or more. The effect is printed as a negative number. Some of the results follow.
Each compound was assayed against human ether-à-go-go-related gene (hERG) potassium channel (human, UniProt Q12809) (assay: primary screen, population patch clamp on CHO cells stably expressing hERG).
human ether-à-go-go-related gene (hERG) potassium channel, sequence (Q12809 whole entry, looked up): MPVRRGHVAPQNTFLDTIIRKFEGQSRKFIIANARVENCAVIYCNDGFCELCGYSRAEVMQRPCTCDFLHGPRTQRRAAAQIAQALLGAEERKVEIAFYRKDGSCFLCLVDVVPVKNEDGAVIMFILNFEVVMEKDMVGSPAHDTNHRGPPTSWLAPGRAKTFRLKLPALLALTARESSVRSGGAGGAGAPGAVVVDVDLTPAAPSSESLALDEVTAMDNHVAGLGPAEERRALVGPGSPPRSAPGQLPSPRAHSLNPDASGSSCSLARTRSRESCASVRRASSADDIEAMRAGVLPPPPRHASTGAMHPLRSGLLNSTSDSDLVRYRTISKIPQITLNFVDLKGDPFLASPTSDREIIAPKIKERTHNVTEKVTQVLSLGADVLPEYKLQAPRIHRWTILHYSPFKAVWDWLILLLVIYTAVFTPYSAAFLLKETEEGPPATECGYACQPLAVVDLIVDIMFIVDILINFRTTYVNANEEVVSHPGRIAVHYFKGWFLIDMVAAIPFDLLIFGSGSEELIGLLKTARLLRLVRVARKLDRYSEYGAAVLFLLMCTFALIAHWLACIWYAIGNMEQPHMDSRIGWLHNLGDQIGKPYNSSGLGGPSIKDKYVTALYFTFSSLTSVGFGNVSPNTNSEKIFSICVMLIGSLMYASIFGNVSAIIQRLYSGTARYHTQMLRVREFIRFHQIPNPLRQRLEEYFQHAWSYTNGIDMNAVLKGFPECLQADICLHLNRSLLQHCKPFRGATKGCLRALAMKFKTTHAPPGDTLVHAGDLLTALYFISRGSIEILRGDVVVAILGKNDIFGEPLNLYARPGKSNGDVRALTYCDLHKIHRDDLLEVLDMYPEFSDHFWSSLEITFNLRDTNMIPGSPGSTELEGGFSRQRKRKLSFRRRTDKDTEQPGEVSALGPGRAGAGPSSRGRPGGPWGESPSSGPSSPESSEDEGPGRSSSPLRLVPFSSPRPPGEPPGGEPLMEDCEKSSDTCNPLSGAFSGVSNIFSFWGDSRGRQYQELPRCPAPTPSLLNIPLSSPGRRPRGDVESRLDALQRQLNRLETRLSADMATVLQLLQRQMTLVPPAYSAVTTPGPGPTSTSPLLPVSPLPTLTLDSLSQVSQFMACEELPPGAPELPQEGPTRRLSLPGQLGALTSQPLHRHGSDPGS

Structure (SMILES)	hERG current change (%, negative = inhibition) at 1uM
CC(C)Sc1ccc([N+](=O)[O-])cc1C(=O)Nc1ccncc1	12%
CCN(CC)c1ccc(/C=C2/C(=O)ON=C2C)cc1	-1.72%
CC1(C)CC(=O)N(c2cccc(C(F)(F)F)c2)C(=O)C1	19.4%
O=C(NNC(=O)c1ccc(-c2ccccc2)cc1)Nc1ccccc1	9.55%
O=C(CC1SCCNC1=O)Nc1cccc([N+](=O)[O-])c1 (stereo not drawn)	10.7%
COc1ccc(C(=O)C(C)[n+]2ccc(-c3nnc4n3CCCCC4)cc2)cc1.[Br-] (stereo not drawn)	-7.71%
CCC(=O)NCCc1nc2cc(NC(=O)COc3ccccc3)ccc2n1C	18%
CC(=O)c1cccc(NC(=O)C(C)OC(=O)CN2C(=O)NC(C)(C)C2=O)c1 (stereo not drawn)	10.4%
CC(=O)c1cccc(NC(=S)NCCc2ccc(F)cc2)c1	14.5%
COc1ccc(C(=O)n2nc(C)cc2C)cc1OC	-6.72%
Cc1cccc(NS(=O)(=O)c2ccc(-n3cccn3)cc2)c1C	24.8%
O=C(CNCc1ccco1)Nc1ccc(Oc2ccccc2)cc1.O=C(O)C(=O)O	8.01%
C[C@H]1C=CC(=O)O[C@H]1c1ccccc1	12.1%
Cc1cc(=O)oc2cc(OCC(=O)OCC(=O)Nc3ccc(C(C)C)cc3)ccc12	10.8%
COc1ccc(Cn2c(CCC(=O)Nc3ccc(C)c(C)c3)nc3cccnc32)cc1	18.6%
O=C(CN1CCOCC1)Nc1c(Cl)cc(Cl)cc1Cl	12.2%
CCCCn1c2nc3ccccc3nc2c2c(=O)n(CCC(C)C)cnc21	9.87%
CCOC(=O)C1C(=O)C=C(c2ccc(Br)cc2)CC1c1ccco1 (stereo not drawn)	14.6%
Cc1ccc(-n2c(NN)nc3ccccc3c2=O)c(C)c1	17%

Structure (SMILES)	hERG current change (%, negative = inhibition) at 1uM
COc1cc2oc3ccccc3c2cc1N(CC(=O)N1CCCCC1)S(=O)(=O)c1ccc(C)cc1	6.03%
COc1ccc(/C=N/NC(=O)CCCCCNC(=O)c2ccccc2)cc1	-0.422%
CCN(CC(=O)Nc1ccc(NC(C)=O)cc1)CC(=O)Nc1ccc(Cl)c(Cl)c1.O=C(O)C(=O)O	14.3%
Cc1nc([N+](=O)[O-])c(C(=O)OCc2ccccc2F)n1C	6.26%
Cc1ccc(NC(=O)CCC(=O)n2nc(C)cc2C)c(C)c1	1.81%
CC(C)(C)OC(=O)N1CCC[C@H]1c1nnc(SCC(=O)Nc2cccc(Cl)c2)o1	11.6%
O=[N+]([O-])c1ccc(C2NS(=O)(=O)N=C3CCCCCN32)cc1 (stereo not drawn)	11.7%
COC(=O)c1ccc(N2C(=O)C3CC(C)=C(C)CC3C2=O)cc1 (stereo not drawn)	9.5%
CN(C1CCCCC1)S(=O)(=O)c1cccc(C(=O)Nc2ccccn2)c1	-7.98%
O=c1oc2ccccc2cc1-c1nc2c(s1)CCc1ccccc1-2	6.26%
CCC(C)n1c(/C=C/c2ccccc2)nc2ccccc21 (stereo not drawn)	6.21%
Cn1cc(S(=O)(=O)Cc2ccc(F)cc2)c2ccccc21	10.2%
COc1ccc(/C=N/NC(=O)C2CC2)c(OC)c1OC	15.4%
CCCCOC(=O)COc1cc(C)cc2oc(=O)c3c(c12)CCC3	4.2%
CS/C(=C\[N+](=O)[O-])Nc1ccc(C)cc1	7.93%
Cc1ccc(-c2nc(CSCC(=O)N3CCN(C(=O)c4ccco4)CC3)c(C)o2)cc1	-3.23%
Cc1ccc(C(=O)N[C@@H](Cc2ccccc2)C(=O)N2CCC3(CC2)NCCc2[nH]cnc23)cc1C	12.1%
CCc1ccc2c(c1)C1(NN=C(c3ccccc3)S1)C(=O)N2 (stereo not drawn)	8.11%
CCOC(=O)C(=O)NC(C)CCc1ccccc1 (stereo not drawn)	9.43%

Structure (SMILES)	hERG current change (%, negative = inhibition) at 1uM
CCCc1nnc(NC(=O)CCC(=O)N2CCCCC2CC)s1 (stereo not drawn)	5.93%
CC(C)(C)CC(C)(C)NC(=S)NC1CCN(Cc2ccccc2)CC1	6.14%
COc1ccc(CCC(=O)NCc2cnn(C)c2)cc1	0.701%
CCOc1cc(Br)ccc1S(=O)(=O)N1CC(C)OC(C)C1 (stereo not drawn)	-2.78%
O=C(CS(=O)(=O)c1ccccc1)c1ccc2c(c1)OCCO2	8.7%
CCC(c1nnc(SCC(=O)Nc2ccc(Cl)cc2C(F)(F)F)n1C1CCCCC1)N(C)C (stereo not drawn)	8.47%
CCS(=O)(=O)NC(C)C(c1cccs1)N1CCN(C)CC1 (stereo not drawn)	4.82%
CCOc1ccc(C(=O)Nc2ccc3c(c2)OCCO3)cc1	3.77%
COc1ccc2c(c1OC)C(=O)OC2Nc1nc(-c2cc3cc(Br)ccc3oc2=O)cs1 (stereo not drawn)	20.5%
O=C(CSC1=NS(=O)(=O)c2ccccc2N1)Nc1cccc(F)c1	17.7%
CCC(/C=C1\Sc2ccc(OC)cc2N1CC)=C\c1sc2ccc(OC)cc2[n+]1CCCS(=O)(=O)[O-]	10%
CN(c1ccc(OC(=O)CC2OC(=O)c3ccccc32)cc1)S(=O)(=O)c1ccccc1 (stereo not drawn)	9.23%
CCN(CC)c1cc(Cl)c2nonc2c1N	6.66%
Cc1cc(C(=O)COC(=O)c2cccnc2Cl)c(C)n1CC1CCCO1 (stereo not drawn)	-0.594%
Cl.OC(CN1CCN(Cc2ccccc2)CC1)c1ccc(F)cc1 (stereo not drawn)	-49.1%
CC(C#N)Sc1ccc(S(=O)(=O)N(C)C2CCCCC2)cn1 (stereo not drawn)	4.38%
COP(=O)(OC)c1nc(-c2ccccc2)oc1NCc1ccccc1	12.5%
O=C(CSc1nnc(-c2c[nH]c3ccccc23)o1)c1ccc(-c2ccccc2)cc1	12.6%
CCOc1ccc(NC(=S)N2c3ccccc3CC2C)cc1 (stereo not drawn)	5.75%

— paper PMC4336329 (PLoS ONE, 2015)
